How the values were obtained:
Assay in all cases: cross-link between two proteins; cross-linking mass spectrometry
[1] = target: T1, ATP synthase F(1) complex subunit gamma, mitochondrial (UniProt Q91VR2)
T1 sequence: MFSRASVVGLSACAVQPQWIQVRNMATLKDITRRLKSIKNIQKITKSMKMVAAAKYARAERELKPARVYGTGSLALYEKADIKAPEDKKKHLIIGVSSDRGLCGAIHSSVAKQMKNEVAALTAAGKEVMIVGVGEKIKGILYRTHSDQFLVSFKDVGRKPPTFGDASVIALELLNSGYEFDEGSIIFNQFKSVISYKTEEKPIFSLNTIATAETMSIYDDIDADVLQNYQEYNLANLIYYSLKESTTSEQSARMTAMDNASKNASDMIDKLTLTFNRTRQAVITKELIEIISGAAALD

[2] = target: T2, MICOS complex subunit Mic60 (UniProt Q8CAQ8)
T2 sequence: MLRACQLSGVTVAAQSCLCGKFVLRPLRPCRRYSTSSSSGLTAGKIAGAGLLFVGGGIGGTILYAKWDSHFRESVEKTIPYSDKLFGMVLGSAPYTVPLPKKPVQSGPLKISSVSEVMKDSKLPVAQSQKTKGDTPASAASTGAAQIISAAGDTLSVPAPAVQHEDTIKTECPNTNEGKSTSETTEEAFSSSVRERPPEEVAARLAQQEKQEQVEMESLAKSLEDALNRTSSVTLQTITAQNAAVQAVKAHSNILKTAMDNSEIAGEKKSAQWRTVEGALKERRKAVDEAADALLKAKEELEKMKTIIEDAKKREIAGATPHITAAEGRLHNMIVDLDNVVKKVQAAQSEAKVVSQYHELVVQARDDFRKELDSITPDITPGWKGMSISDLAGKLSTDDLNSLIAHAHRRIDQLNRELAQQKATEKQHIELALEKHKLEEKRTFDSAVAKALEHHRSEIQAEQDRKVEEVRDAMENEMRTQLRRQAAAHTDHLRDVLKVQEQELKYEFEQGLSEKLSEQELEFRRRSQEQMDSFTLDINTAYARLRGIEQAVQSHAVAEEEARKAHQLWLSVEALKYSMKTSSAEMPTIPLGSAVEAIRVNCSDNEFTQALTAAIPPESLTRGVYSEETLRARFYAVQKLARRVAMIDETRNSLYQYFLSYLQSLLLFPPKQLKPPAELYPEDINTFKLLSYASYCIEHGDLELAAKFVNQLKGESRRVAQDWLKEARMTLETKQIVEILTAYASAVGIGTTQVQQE

[3] = target: T3, NADH dehydrogenase [ubiquinone] 1 alpha subcomplex subunit 10, mitochondrial (UniProt Q99LC3)
T3 sequence: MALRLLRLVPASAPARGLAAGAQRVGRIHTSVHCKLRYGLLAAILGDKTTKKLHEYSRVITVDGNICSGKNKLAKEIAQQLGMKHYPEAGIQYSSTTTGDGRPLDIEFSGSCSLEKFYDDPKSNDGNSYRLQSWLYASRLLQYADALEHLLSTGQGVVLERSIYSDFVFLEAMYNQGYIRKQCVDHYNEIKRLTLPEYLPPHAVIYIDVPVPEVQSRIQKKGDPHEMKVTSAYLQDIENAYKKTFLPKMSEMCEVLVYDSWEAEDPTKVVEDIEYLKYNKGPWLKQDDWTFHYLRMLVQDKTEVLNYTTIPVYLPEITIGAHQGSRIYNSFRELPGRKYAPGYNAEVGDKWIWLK

[4] = target: NADH dehydrogenase [ubiquinone] 1 alpha subcomplex subunit 13 (UniProt Q9ERS2)
Sequence of UniProt Q9ERS2 (Q9ERS2 whole entry, one chain of several): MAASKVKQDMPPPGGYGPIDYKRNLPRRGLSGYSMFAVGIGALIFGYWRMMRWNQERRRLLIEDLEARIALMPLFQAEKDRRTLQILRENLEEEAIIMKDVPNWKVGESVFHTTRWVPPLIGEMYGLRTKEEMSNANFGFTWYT

Sequence of ATP synthase F(1) complex catalytic subunit beta, mitochondrial (chain, as listed by the source): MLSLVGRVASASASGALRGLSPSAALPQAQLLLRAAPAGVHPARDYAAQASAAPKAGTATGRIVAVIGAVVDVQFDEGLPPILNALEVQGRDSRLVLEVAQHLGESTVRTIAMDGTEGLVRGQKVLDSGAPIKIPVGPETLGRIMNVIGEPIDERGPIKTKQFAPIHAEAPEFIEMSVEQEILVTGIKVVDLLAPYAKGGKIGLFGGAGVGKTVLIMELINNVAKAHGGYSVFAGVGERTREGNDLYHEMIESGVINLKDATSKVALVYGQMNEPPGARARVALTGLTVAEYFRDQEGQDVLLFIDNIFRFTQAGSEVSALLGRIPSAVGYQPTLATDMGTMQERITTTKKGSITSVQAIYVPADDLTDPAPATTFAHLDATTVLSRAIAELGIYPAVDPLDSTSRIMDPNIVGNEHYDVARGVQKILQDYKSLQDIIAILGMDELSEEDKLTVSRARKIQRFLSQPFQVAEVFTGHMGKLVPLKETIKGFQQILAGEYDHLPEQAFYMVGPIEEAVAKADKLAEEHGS
Sequence of NADH dehydrogenase [ubiquinone] iron-sulfur protein 3, mitochondrial (chain, as listed by the source): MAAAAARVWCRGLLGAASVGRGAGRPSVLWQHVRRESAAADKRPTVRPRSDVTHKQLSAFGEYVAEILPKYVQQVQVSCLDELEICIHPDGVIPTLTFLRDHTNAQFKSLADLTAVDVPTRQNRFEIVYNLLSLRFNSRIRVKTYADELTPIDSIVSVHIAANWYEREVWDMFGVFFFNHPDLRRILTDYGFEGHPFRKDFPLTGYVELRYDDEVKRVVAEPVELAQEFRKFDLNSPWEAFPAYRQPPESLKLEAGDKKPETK
Sequence of NADH dehydrogenase [ubiquinone] iron-sulfur protein 2, mitochondrial (chain, as listed by the source): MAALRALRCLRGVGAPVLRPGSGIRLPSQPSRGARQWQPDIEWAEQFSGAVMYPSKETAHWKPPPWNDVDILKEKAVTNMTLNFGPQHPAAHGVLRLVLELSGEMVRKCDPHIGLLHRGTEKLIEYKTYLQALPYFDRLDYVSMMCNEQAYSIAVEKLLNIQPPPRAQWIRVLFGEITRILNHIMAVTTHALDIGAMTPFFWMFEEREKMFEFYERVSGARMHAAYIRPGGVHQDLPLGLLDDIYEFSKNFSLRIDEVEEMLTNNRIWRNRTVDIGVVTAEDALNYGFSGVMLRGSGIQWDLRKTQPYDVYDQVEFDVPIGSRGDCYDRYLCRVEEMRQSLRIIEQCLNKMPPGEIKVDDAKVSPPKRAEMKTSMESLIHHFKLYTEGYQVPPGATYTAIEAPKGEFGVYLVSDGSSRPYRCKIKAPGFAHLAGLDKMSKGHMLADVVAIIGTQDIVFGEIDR

Substance: ATP synthase F(1) complex catalytic subunit beta, mitochondrial
- listed as a hit [1]: yes
- listed as a hit [2]: yes

Substance: NADH dehydrogenase [ubiquinone] iron-sulfur protein 2, mitochondrial
- listed as a hit [3]: yes

Substance: NADH dehydrogenase [ubiquinone] iron-sulfur protein 3, mitochondrial
- listed as a hit [4]: yes
